# Test results as given in publication PMC4336329 (PLoS ONE, 2015).
# The campaign covered roughly 310,000 compounds. About 14,000 (4.5%) showed an effect of 50% or more. Effects have a minus sign here. The list shows a part of the results.
# Molecular target: human ether-à-go-go-related gene (hERG) potassium channel (human, UniProt Q12809)
# Assay: primary screen, population patch clamp on CHO cells stably expressing hERG
# 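Further: peak tail current of the secondary pulse compared with the same well before compound.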
# Sequence of human ether-à-go-go-related gene (hERG) potassium channel (Q12809 whole entry, looked up): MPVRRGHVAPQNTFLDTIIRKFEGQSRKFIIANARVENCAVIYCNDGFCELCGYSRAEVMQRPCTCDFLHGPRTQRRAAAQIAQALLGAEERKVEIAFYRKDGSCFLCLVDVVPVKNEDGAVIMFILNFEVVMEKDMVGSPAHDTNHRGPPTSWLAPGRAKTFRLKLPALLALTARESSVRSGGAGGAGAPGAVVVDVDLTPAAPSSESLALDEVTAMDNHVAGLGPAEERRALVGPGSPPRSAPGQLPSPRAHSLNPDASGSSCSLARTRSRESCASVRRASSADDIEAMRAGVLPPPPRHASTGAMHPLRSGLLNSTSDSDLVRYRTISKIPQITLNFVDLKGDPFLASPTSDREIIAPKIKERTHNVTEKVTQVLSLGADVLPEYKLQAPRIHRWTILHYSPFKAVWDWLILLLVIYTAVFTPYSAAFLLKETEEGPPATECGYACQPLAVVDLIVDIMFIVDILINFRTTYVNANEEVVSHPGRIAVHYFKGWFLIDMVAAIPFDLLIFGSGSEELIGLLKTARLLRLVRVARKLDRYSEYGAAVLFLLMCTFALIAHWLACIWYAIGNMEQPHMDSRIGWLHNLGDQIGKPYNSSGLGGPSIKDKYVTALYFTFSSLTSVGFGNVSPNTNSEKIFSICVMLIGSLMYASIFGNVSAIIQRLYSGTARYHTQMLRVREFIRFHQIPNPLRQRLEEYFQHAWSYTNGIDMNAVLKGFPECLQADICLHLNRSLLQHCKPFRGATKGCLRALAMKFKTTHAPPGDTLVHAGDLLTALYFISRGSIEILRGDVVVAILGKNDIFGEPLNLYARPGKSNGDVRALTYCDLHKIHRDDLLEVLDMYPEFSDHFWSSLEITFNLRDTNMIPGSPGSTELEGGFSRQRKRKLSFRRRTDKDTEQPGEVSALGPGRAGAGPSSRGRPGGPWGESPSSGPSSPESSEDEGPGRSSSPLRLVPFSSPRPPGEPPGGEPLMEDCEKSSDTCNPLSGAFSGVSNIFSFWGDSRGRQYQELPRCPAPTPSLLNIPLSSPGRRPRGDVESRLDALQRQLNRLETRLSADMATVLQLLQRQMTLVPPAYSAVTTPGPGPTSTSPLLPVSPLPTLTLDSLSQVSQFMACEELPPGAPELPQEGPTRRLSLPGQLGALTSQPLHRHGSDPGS
row,Compound,"hERG current change (%, negative = inhibition) at 10uM [%]"
1,O=P1(NC2CCCC2)COc2ccccc2OC1,4.76
2,Cc1ccc(CN2C(=O)CCC2C(=O)NCC2CCCO2)cc1 (stereo not drawn),1.51
3,CCCNNC(=O)C(O)(c1cccc(C)c1)c1cccc(C)c1,-2.43
4,CC(=O)Oc1ccc(-c2cccc(C(=O)OCC(=O)Nc3ccccc3Oc3ccccc3)c2)cc1,4.64
5,Cc1ccc(N2C(=O)C3CCCN3C2=S)c(C)c1 (stereo not drawn),2.83
6,CN1C[C@H](CNC(=O)OCc2ccccc2)C[C@@H]2c3cccc4c3c(cn4C)C[C@H]21,-61.9
7,C/C(=N\NC(=O)c1ccncc1)c1cccc(NC(=O)c2ccc(Cl)s2)c1,-47.7
8,S=C(NN=C1CCN(Cc2ccccc2)CC1)NC1CCCCC1,-38.5
9,O=C1CN(S(=O)(=O)c2ccc(F)cc2)c2ccccc2N1,-3.57
10,O=C(Nc1ncccn1)c1cccc(F)c1,2.8
11,COC(=O)Cc1c(C)c2ccc(OCC(=O)N(C)C3CCS(=O)(=O)C3)cc2oc1=O (stereo not drawn),21.2
12,CCOC(=O)c1sc(NC(=O)CCCn2nc([N+](=O)[O-])cc2C)c(C(=O)OCC)c1C,2.57
13,C=CCNC(=O)/C(C#N)=C/c1ccccc1OCc1ccc(C(=O)OC)cc1,-32.9
14,CC(C)NC(=O)c1nn2c(C(F)(F)F)cc(-c3ccco3)nc2c1Cl,5.88
15,N=c1c2c3c(sc2ncn1N)CCCC3,2.04
16,O=[N+]([O-])/C=C1\NCCN1Cc1ccc(Cl)nc1 [24810910],-0.135
17,O=C(NCc1ccccc1)c1cccc(S(=O)(=O)NCc2ccccc2)c1,-18.8
18,Cc1ccccc1OCc1nnc(SCC(=O)NC2CCCCC2)o1,4.41
19,N#CC1=C(N)OC2=C(C(=O)CCC2)C1c1ccoc1 (stereo not drawn),5.92
20,O=CN(Cc1ccco1)C1(C(=O)NC2CCCCC2)CCCCC1,-0.0323
21,CCOc1ccc(-c2nc(CSc3nncs3)cs2)cc1OC,-15.1
22,CCCNC(=O)Cn1c(=O)n(C)c2ccccc21,-4.33
23,CC1(C)C/C(=C(/C#N)C(N)=O)CCO1,16.1

row,Compound,"hERG current change (%, negative = inhibition) at 10uM [%]"
1,Clc1ccc(C2Nc3ccccc3-n3cccc32)cc1 (stereo not drawn),6.63
2,O=C(NCCCN1CCOCC1)c1ccc(Sc2cccc(Cl)c2)c([N+](=O)[O-])c1,-45.7
3,CC1CN(CC(=O)Nc2cc(S(=O)(=O)N3CCCC3)ccc2Cl)CC(C)O1 (stereo not drawn),-1.68
4,CC(C)OC(=O)/C(C#N)=C\c1cccnc1,26.3
5,Cc1ccc(C(=O)Nc2ccc(NC(=O)c3ccc(C)o3)cc2)o1,-1.94
6,CC(CNS(=O)(=O)c1ccccc1)Sc1nncn1C (stereo not drawn),19.4
7,COc1ccc(C(=O)N2CCN(c3ccc(C)cc3C)CC2)cc1OC,-68.5
8,CCOc1ccc(NC(=O)CN(C)C(=O)/C=C/c2ccco2)cc1OCC,-61.2
9,Cn1c(O)c(N=NC(=O)c2ccccc2O)c2ccccc21,13.6
10,CSCCNC(=O)c1ccc2nc(Cc3ccccc3F)oc2c1,16.4
11,O=C(CN1CCOCC1)Nc1nc(-c2ccc(Cl)cc2)cs1,-48.2
12,COc1ccc(/C=C/C(=O)c2cc3c(cc2N)OCO3)cc1,6.97
13,COc1ccccc1NC(=O)CN(Cc1ccco1)C(=O)c1ccc(=O)[nH]c1,8.98
14,CCOc1ccc(-n2c(O)c(/C=N/Nc3nc(C)cc(C)n3)c3ccccc3c2=O)cc1,24.3
15,C=C(C)COc1ccc(-c2[nH]ncc2Oc2ccccc2OC)c(O)c1,-55.2
16,O=C(N/N=C/c1ccccn1)c1ccco1,8.08
17,CNS(=O)(=O)c1cn(CC(=O)NCc2cccc(OC)c2)cc1S(=O)(=O)NC,16.8
18,CCOC(=O)C1=C(N)n2c(s/c(=C\c3ccco3)c2=O)=C(C(=O)OCC)C1c1ccco1 (stereo not drawn),-5.19
19,COc1ccc(CC2C(=O)NC(=O)NC2=O)c(OC)c1,7.01
20,COCCn1c(=NC(=O)c2cc(Cl)sc2Cl)sc2cc(S(N)(=O)=O)ccc21,17.4
21,CC(C(=O)N1CCOCC1)N1C(=O)c2ccccc2C1=O (stereo not drawn),16.9
22,COC(=O)c1ccccc1NC(=O)c1sc(Cl)nc1C,0.146
